Measured values as given in the RNAGym collection of RNA variant scans (doi:10.1073/pnas.2313332121).
Variants at the floor of the assay are shown more often than the library holds them.

B1: TPR 5TU (parent)
chain: GGAUCUUCUCGAUCUAACAAAAAAGACAAAUCUGCCACAAAGCUUGAGAGCAUCUUCGGAUGCAGAGGCGGCAGCCUUCGGUGGCGCGAUAGCGCCAACGUUCUCAACUAUGACACGCAAAACGCGUGCUCCGUUGAAUGGAGUUUAUCAUG

Variants of: B1
Test: polymerase ribozyme fitness, log enrichment relative to wild type (log ratio); higher = more active; in vitro selection for triplet polymerase activity
In short: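 Mutant libraries for each subunit of a heterodimeric triplet polymerase ribozyme were made by PCR and then transcribed. Each library underwent one round of in vitro selection in triplicate: annealing with a biotinylated primer, the partner subunit and triplets, frozen incubation at −7 °C, gel excision of extended constructs, streptavidin-bead capture and RT-PCR. Input and output libraries were Illumina-sequenced, and only genotypes with ≥10 input reads and ≥1 read per output were kept. Fitness is the logarithm, base 2, of genotype enrichment over wild-type enrichment, computed from inverse-variance-weighted replicate averages.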

Variant	polymerase ribozyme fitness (log ratio)
A22U A49C C75U G94A	≤ -4.2
A22C G50A G62A A66G C79A G84U	≤ -4.2
A22U C38U C87G G100A C116A C125U A150C	≤ -4.2
A22U A115C	-0.374
A22C A24G A52G G68U	≤ -4.2
A21U U78G	≤ -4.2
A22G A29U G50A U56G C87U C118U	≤ -4.2
A22C C36U U61A C87U A97C C108U A121U A122U	≤ -4.2
A22U C57G U90A A91U G92A	≤ -4.2
A22U G25A G94C C96U G126A A137C	≤ -4.2
A21U U77G G88C A120G G128A	≤ -4.2
A22C C32U C85G C95A G100A G112C	≤ -4.2
A22U C35A U55A U56G G74A C85G	≤ -4.2
A22U C85U	-0.371
A22U C85A	-0.394
A22G G67A A91U C96U A110U A137U	≤ -4.2
A22U A30C A39U C95U U148C	≤ -4.2
A22U A66C A73C C87U A98U C103A C149G	≤ -4.2
A22C C35A C57A A60U C93U A120U	≤ -4.2
A22G A24U U55A C75G C76A C95G G124U G136U	≤ -4.2
A21U U45G U55A A91U C125U C131G	≤ -4.2
A22C C96U C108U A113U U146A U151G	≤ -4.2
A22C C51G U55G C85U G86C C96U C149U A150G	≤ -4.2
A22U C85G U102G G140C	≤ -4.2

Variant	polymerase ribozyme fitness (log ratio)
A22C U61A C76A U78C C87A A147C	≤ -4.2
A22U C57A A138C U145C	≤ -4.2
A22C G62A G80U U90A C116G G143U A150U	≤ -4.2
A22U A52G U56A G71C G83U A122U	≤ -4.2
A22C U56A C57G G86U A142G	-3.37
A22G C35G U56A G74C C108A U146G	≤ -4.2
A22U G50U C87U C108U C149U G152U	≤ -4.2
A22U C54U G92U A147U	0.944
A22C C79G C95A G143C A150G	≤ -4.2
A22G A52U C79A C93A G100C G143U U144A U146A A150U	≤ -4.2
A22U A30G U82G G92U	≤ -4.2
A22U C38A U61A A64G G70C A119G G128U	≤ -4.2
A22U G59U C103G A110U C118U	≤ -4.2
A22U C57A C85G C87U C99A C114A G140C	≤ -4.2
A22C A39U A40C A47G U56A C96U C125A	≤ -4.2
A22G G83A A91U G100U	≤ -4.2
A22U A26G A28C A37U U56A C96U A98U	≤ -4.2
A22C C36A U56A A60C C87A	≤ -4.2
A22G U33G C51A A66G C76A G94U C95G A98U U135A	≤ -4.2
A22U A60G A89G C95G G117A G143U	≤ -4.2
A22G A26G U55A C85A G136A U146A	≤ -4.2
A22C A40G U44C C57G G68A U104A	≤ -4.2
A22U A39G A40U G68U G86A C96U A107U C116G	≤ -4.2
A22C C85G U109A	-3.43

Variant	polymerase ribozyme fitness (log ratio)
A22U A91C	≤ -4.2
A22U C35A U55C C79G C85A A91U	≤ -4.2
A22U C108U	-2.85
A22C U31C A41U U45A C54U C96U C118U G141A U144A A150U	≤ -4.2
A22U A23G U61G G86A	≤ -4.2
A21U U55A C93G A97U A115U	≤ -4.2
A21U U53A C57U G83A C95U	-4.06
A22U C32U U53A G80C	≤ -4.2
A21U U77A U82G C96G U104G C105A C118U U139C	≤ -4.2
A22C C75G G88U A91G A110G C116A G136A	≤ -4.2
A22U G50U U55A G81C C93U A122U A150C	≤ -4.2
A22U A24C G34C U55A U56G C96U	≤ -4.2
A22C G42U A73U G81C A91U C96U A107G G143C	≤ -4.2
A22C C51U C79G U82C G92A	≤ -4.2
A22U A39U U44G C51A G141C U146C A150G	≤ -4.2
A22U C36A G68A U82G G83U A106U	≤ -4.2
A21U U55A C99G C108A G133U A142U	≤ -4.2
A22U G34A U77A C95U G124A C149A	≤ -4.2
A22G A24U G59C C96G A98U	0.453
A21U U61A G88A	≤ -4.2
A22U C79G C87U	≤ -4.2
A22U G25U C32U G48C C96A C132G	≤ -4.2
A22C G25U U55C C85G A98C	≤ -4.2
A22U A29G G70A	≤ -4.2

Variant	polymerase ribozyme fitness (log ratio)
A22U C96U C118U	-0.15
A22C A107U U111C G143C U151G	≤ -4.2
A22C A26G G50C C54U C75U G92A A150G	≤ -4.2
A22G G70A G94C C123A A142U	≤ -4.2
A22C U78C A98G U102G U151G	≤ -4.2
A22G C38U A41C G58U G94C A97U A106U A119U G124A U151C	≤ -4.2
A22U G50U C96A G136C A142G	≤ -4.2
A22G U53A A73U A98G U139A	≤ -4.2
A22C U61C G80A A119U C125A	-2.69
A22U A52C G65A C132G G140U	-3.17
A22G G65A A97U	-2.68
A22C C87U C116G C125U C149U	≤ -4.2
A22U A49C G70C G80U A89C G92U A107U C125U	≤ -4.2
A22C A24U G50C G58A C93U G94U	≤ -4.2
A22C G42C C69G A91U	≤ -4.2
A22C G34C G86U A106U	≤ -4.2
A22U C35G G94C U101C A115C	≤ -4.2
A21U U44A C51U C57U G65A	≤ -4.2
A21U U44A	≤ -4.2
A22U G50C	-2.99
A22C A28U U33G C35A U56A G65C	≤ -4.2
A22U C36G C105G	≤ -4.2
A22C A28U A52U G83C A91G A97C	≤ -4.2
A22C A28G G83A G141U	≤ -4.2

Variant	polymerase ribozyme fitness (log ratio)
A22G C35U C93G A142C A150G	≤ -4.2
A22G C32U A37G A41C G71A C95U C96G U139C	≤ -4.2
A22C C32U C85G	≤ -4.2
A22C A28U G62A G65C U90A C99U C108U C116G	≤ -4.2
A22G G50C U101G A110U U145A	≤ -4.2
A22C A29C C57U	≤ -4.2
A21U U56A G140A G141A	-4.17
A22C C75A C87A	≤ -4.2
A22G A26G G42U A64C G65C G68A C76G G83U A138G G140A G141A	≤ -4.2
A22C A66C C87G C99A A121G U127C	≤ -4.2
A22G A28G C57A U61A G65U C125A	≤ -4.2
A22U C27G G50C G58C A97G C103G A110U U139A	≤ -4.2
A22U A29U C85A	≤ -4.2
A22U C51A G86A C131U U134A	≤ -4.2
A22C C96A A97U U101C	-1.53
A22U C95U C103G	-1.55
A22G G80A C87G A89U G133U C149G	≤ -4.2
A22U C57A G80A G94U C99U C116G G143U A147U	≤ -4.2
A22C G74C G88U C103G	≤ -4.2
A22C U55G G83A G92U U148A	≤ -4.2
A22G A23C A98G A106C	≤ -4.2
A22U C43U A66G G68A G83A G84U	≤ -4.2
A22U C38U C51U U53A C54A C85G	≤ -4.2
A22C U102G A110G	≤ -4.2

Variant	polymerase ribozyme fitness (log ratio)
A22U A28G	-3.35
A22C A52C U53A G71U C93G A115C	≤ -4.2
A22C C27G G94C	≤ -4.2
A22G G71C A73C A119G	≤ -4.2
A22U C87A	-4.14
A22G G83C A98U C114U	-3.19
A22U A41C G86U C93U G128U	≤ -4.2
A22U A47U U53G U55A C57U G68A G86C G143A	≤ -4.2
A22U C57A	-0.719
A22U G42A U55A G86A A89G G94C	≤ -4.2
A22G A24U C27U A40G C87G U90A	≤ -4.2
A22G A41G A120G G141U	1.45
A22U C87A A89U C103G A106C	≤ -4.2
A22U A37U C95U U146A	-1.67
A22G A64C G68U A91C A121U	≤ -4.2
A22C C32U U53A C72G G83C G94A A106G G133C	≤ -4.2
A22C A23G A49C A66G A113U	≤ -4.2
A22C C51A C93G A98C C116U U135C	≤ -4.2
A22U A40C C85U C93G U101G A107G	≤ -4.2
A22C A23G G62A A91G A98U C114A U146A	≤ -4.2
A22U G50U G68C C95A U139C	≤ -4.2
A21U U44A C93G G94C	≤ -4.2
A21U U56A C96U	-0.871
A22U C63U	0.542

Variant	polymerase ribozyme fitness (log ratio)
A22G C36G G81U A89C A97C C116A	≤ -4.2
A22U A24U A52U C54A G94U U145G	≤ -4.2
A22C A121U	-0.324
A22C C69G G70C C85G	≤ -4.2
A22G C35G C38A C95U A98G	≤ -4.2
A22C A47C A73U G83U G84A C95U C103G C116U G140C	≤ -4.2
A22U A24C A40U U55A C85A G117C G136U A138C	≤ -4.2
A22C C27U A29G C87U A97C A110C	≤ -4.2
A22G A52G G58A G70A A97G C99A U109G A120C U135G G136A	≤ -4.2
A22C U55G G67A U78A C93G C99A C149G	≤ -4.2
A22U C35A C87A A122U	≤ -4.2
A22U C32A G42A G48A A52G U148A	≤ -4.2
A22G U31C C32A C51U U61G C85U A147U	≤ -4.2
A22U C35U A41C U53C U148G	≤ -4.2
A22G A40C A66C C96G C103G	≤ -4.2
A22U C32A G48U G71U C87G G88C U148G	≤ -4.2
A22G G34U A49C	≤ -4.2
A22U C149U	0.0648
A22C U53G G62A C63U C87A A122G	≤ -4.2
A22U G50C C76U G81A U135C A138G	≤ -4.2
A22C A39C U53A C69A G84U G126C	≤ -4.2
A22U C43U A47C A91C C108U A115U A121C	≤ -4.2
A22U C93U A119G G140A U146C	≤ -4.2
